The whole screen tested about 410,000 compounds, of which about 530 (0.13%) were called active. The shares of active, inactive and inconclusive entries below differ from those in the screen. Calls follow the shape of the dose curve; as a rule, active = well fitted inhibition curve with a large enough effect; inconclusive = small, poorly fitted or top-dose-only effect, or another doubt; inactive = no such curve, though single readings can be large or run the other way. Potencies beside an inconclusive call are fits to weak or partial responses and may not hold up.
Assay: qHTS of GLP-1 Receptor Inverse Agonists: Cytotox Screen
Settings: HEK293 cAMP-luciferase reporter cells, luminescence, 24 h; activity change, negative = inhibition: at 38.3 µM (top of the series) unless noted
Procedure, shortened: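 1536-well qHTS counterscreen of the MLSMR; 200 cells/uL, 12 h pre-incubation, 23 nL cpd, 24 h at 37 deg C 5% CO2, luciferase detection reagent, 12 min RT, luminescence. Inhibition = undesired.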
% is scaled to controls: 0 for no effect and ±100 for the full control effect; potency is read from the fitted curve at half-maximal effect.

**Q.** With `O=C(NCC1CCCO1)c1nn2c(C(F)(F)F)cc(-c3cc(Br)cs3)nc2c1Br` (stereo not drawn) as the molecule, how does the “activity change, negative = inhibition” value read?
**A.** inactive: 15.4%

**Q.** For `COc1ccc(/C=C2\SC(=S)N(CCCC(=O)Nc3ccc(O)cc3)C2=O)cc1`, which Potency is on record?
**A.** inconclusive: 12.6 µM [inhibitor, partial curve, poor fit]

**Q.** With `CCNc1nn2ccccc2c1/C=C(\C#N)C(=O)OCC` as the molecule, how does the Potency read?
**A.** inconclusive: 28.2 µM [inhibitor, single point]

**Q.** With `CC1(C)OC(=O)C2=C(C[C@@H](CCc3ccccc3)O[C@H]2CCc2cccc(Cl)c2)O1` as the molecule, how does the “activity change, negative = inhibition” value read?
**A.** inactive: 7.1%

**Q.** With `CCN(CC)c1ccc(NC(=S)Nc2ccc(F)cc2)cc1` as the molecule, how does the Potency read?
**A.** inconclusive: 28.2 µM [inhibitor, single point]

**Q.** For `O=C(O)C1C2C=CC(O2)C1C(=O)NCc1ccc(Cl)cc1` (stereo not drawn), which “activity change, negative = inhibition” value is on record?
**A.** inactive: 4.02%

**Q.** For `Cc1ccc(NC(=O)N(Cc2c[nH]c3ccccc23)C2CCCCCC2)cc1C`, which “activity change, negative = inhibition” value is on record?
**A.** inactive: -2.85%

**Q.** With `Cc1ccc(C(=O)c2cc([N+](=O)[O-])ccc2N2CCOCC2)cc1C` as the molecule, how does the Potency read?
**A.** inconclusive: 2.51 µM [inhibitor, partial curve, poor fit]

**Q.** For `O=C(NCCC1=CCCCC1)c1coc(=O)c(Br)c1`, which Potency is on record?
**A.** inconclusive: 10 µM [inhibitor, partial curve, poor fit]

**Q.** Which “activity change, negative = inhibition” value does the source give for `O=C(NC1CCS(=O)(=O)C1)/C(=C/c1ccco1)NC(=O)c1ccccc1` (stereo not drawn) here?
**A.** inactive: -16.5%

**Q.** For `Cc1ccc(NC(=O)c2ccc(Cl)c(N3C(=O)C=CC3=O)c2)cc1`, which Potency is on record?
**A.** inconclusive: 25.1 µM [inhibitor, single point]

**Q.** Which “activity change, negative = inhibition” value does the source give for `CSc1ccc(CCNC(=O)CN2C(=O)COc3ccc(S(=O)(=O)N4CCCC4)cc32)cc1` here?
**A.** inactive: 0.277%

**Q.** Which “activity change, negative = inhibition” value does the source give for `Cn1cccc1-c1nc2ccc(NC(=O)c3ccc([N+](=O)[O-])cc3)cc2[nH]1` here?
**A.** inactive: -11.1%

**Q.** With `CCOc1ccc(NC(=O)c2cnn3c2NC(c2ccccc2)=CC3c2cccc(OC)c2OC)cc1` (stereo not drawn) as the molecule, how does the “activity change, negative = inhibition” value read?
**A.** inactive: 4.59%

**Q.** For `O=S(=O)(c1ccc2c(c1)C(=NO)c1cc(S(=O)(=O)N3CCCCC3)ccc1-2)N1CCCCC1`, which Potency is on record?
**A.** inconclusive: 1.12 µM [inhibitor, full curve]

**Q.** Which Potency does the source give for `CC(C)NC(=O)C1CCCN(S(=O)(=O)c2ccc(-n3cnnn3)cc2)C1` (stereo not drawn) here?
**A.** inconclusive: 11.2 µM [inhibitor, single point]

**Q.** For `COc1ccc2cc(S(=O)(=O)NC3CC(C)(C)NC(C)(C)C3)ccc2c1`, which “activity change, negative = inhibition” value is on record?
**A.** inactive: 23.5%

**Q.** With `COc1ccc(NC(=O)/C(=C/c2cccs2)NC(=O)c2ccco2)cc1` as the molecule, how does the Potency read?
**A.** inconclusive: 28.2 µM [inhibitor, single point]

**Q.** For `O=C(CSC1=Nc2ccccc2C2=NC(Cc3c[nH]c4ccccc34)C(=O)N12)NC1CCCCC1` (stereo not drawn), which Potency is on record?
**A.** inconclusive: 3.98 µM [inhibitor, partial curve, poor fit]

**Q.** With `CCOc1ccc(C(=O)C(C)OC(=O)Cn2[nH]c(=O)c3ccccc3c2=O)cc1` (stereo not drawn) as the molecule, how does the “activity change, negative = inhibition” value read?
**A.** inactive: 4.31%

**Q.** For `O=C(c1ccccc1)N1CCN(c2ccc([N+](=O)[O-])c(N3CCOCC3)c2)CC1`, which Potency is on record?
**A.** inconclusive: 11.2 µM [inhibitor, single point]

**Q.** For `N/C(=N\OC(=O)c1ccccc1)C(Cc1ccccc1)C(=O)NOC(=O)c1ccccc1` (stereo not drawn), which Potency is on record?
**A.** inconclusive: 28.2 µM [inhibitor, single point]

**Q.** Which “activity change, negative = inhibition” value does the source give for `COc1cccc2c1OCC(C(=O)Nc1nccs1)=C2` here?
**A.** inactive: -13.8%

**Q.** For `CC(C)(C)c1ccc(-c2cn(-c3ccc(Br)cc3)c3[n+]2CCCS3)cc1`, which Potency is on record?
**A.** inconclusive: 28.2 µM [inhibitor, partial curve, poor fit]

**Q.** For `CCn1c(C)cc(=S)c2ccccc21`, which Potency is on record?
**A.** inconclusive: 22.4 µM [inhibitor, single point]

**Q.** With `O=C(CSc1nc(=O)n2cc(Cl)ccc2n1)NCCc1ccccc1` as the molecule, how does the “activity change, negative = inhibition” value read?
**A.** inactive: 14.5%

**Q.** Which Potency does the source give for `CCN(CC(=O)Nc1ccccc1SC)Cc1nc2ccccc2c(=O)[nH]1` here?
**A.** inconclusive: 2 µM [inhibitor, full curve, poor fit]

**Q.** With `Cn1cc(-c2coc3c(C(=O)NCc4ccco4)cccc23)cn1` as the molecule, how does the “activity change, negative = inhibition” value read?
**A.** inactive: -11.5%

**Q.** Which Potency does the source give for `C#CCOCCOCCOCCNc1nc(N2CCOCC2)nc(N2CCN(C(=O)[C@H](Cc3cc4ccccc4[nH]3)n3cc([C@@H](N)Cc4ccc(O)cc4)nn3)CC2)n1` here?
**A.** inconclusive: 31.6 µM [inhibitor, single point]

**Q.** With `CC(C)(C)c1ccccc1OCCCCCn1ccnc1` as the molecule, how does the Potency read?
**A.** inconclusive: 28.2 µM [inhibitor, single point]

**Q.** With `CCn1ccnc1CN(C)Cc1cn(-c2ccccc2)nc1-c1ccc(OC)cc1F` as the molecule, how does the Potency read?
**A.** inconclusive: 28.2 µM [inhibitor, single point]

**Q.** With `CCCCC(=O)N(C)c1c(C)nc2ccc(C(=O)Nc3cccc(NS(C)(=O)=O)c3)cn12` as the molecule, how does the “activity change, negative = inhibition” value read?
**A.** inactive: 2.78%

**Q.** With `O=C(NCCc1ccc(Cl)cc1)C(=O)NCC(c1ccc2c(c1)OCO2)N1CCOCC1` (stereo not drawn) as the molecule, how does the “activity change, negative = inhibition” value read?
**A.** inactive: -13.2%

**Q.** For `O=C1N[C@@H](Cc2c[nH]c3ccccc23)COC(=O)[C@@H](Cc2ccc(F)cc2)CC/C=C/C[C@@H]1CC(=O)N(CCO)Cc1ccccc1`, which Potency is on record?
**A.** inconclusive: 10 µM [inhibitor, partial curve, poor fit]

**Q.** With `COc1ccc(S(=O)(=O)Nc2ccccc2C(=O)Nc2nc(-c3ccc(F)cc3)cs2)cc1OC` as the molecule, how does the activity change, negative = inhibition read?
**A.** inactive: 13% [at 1.53 µM]

**Q.** With `CC(=O)Oc1ccccc1Cn1c(C)c(C(=O)NCc2ccc(Cl)c(Cl)c2)sc1=O` as the molecule, how does the Potency read?
**A.** inconclusive: 28.2 µM [inhibitor, single point]

**Q.** With `Cc1ccsc1-c1n[nH]c(=S)n1CC(C)C` as the molecule, how does the Potency read?
**A.** inconclusive: 10 µM [inhibitor, single point]

**Q.** For `Cc1oc2c(c1C(=O)Nc1ccccc1Br)C1=NCCN1C=N2`, which Potency is on record?
**A.** inconclusive: 28.2 µM [inhibitor, single point]

**Q.** Which Potency does the source give for `CC(C)CNC(=S)N1CCC(Cc2ccccc2)CC1` here?
**A.** inconclusive: 22.4 µM [inhibitor, single point]

**Q.** With `COC(=O)c1[nH]c2ccc(C)cc2c1NC(=O)CN1CCN(c2ccccc2)CC1` as the molecule, how does the Potency read?
**A.** inconclusive: 7.94 µM [inhibitor, partial curve, poor fit]

**Q.** Which “activity change, negative = inhibition” value does the source give for `CC(C)OCCCNc1sc(S(=O)(=O)c2ccccc2)nc1S(=O)(=O)c1ccc(Cl)cc1` here?
**A.** inactive: 1.78%

**Q.** With `O=S(=O)(Nc1cccc2ccccc12)c1cccc2nonc12` as the molecule, how does the Potency read?
**A.** inconclusive: 28.2 µM [inhibitor, single point]

**Q.** For `CN(C(=O)COc1ncnc2sccc12)c1ccccc1`, which Potency is on record?
**A.** inconclusive: 12.6 µM [inhibitor, single point]
